Data on eleven compounds can be found in the supplement of paper PMC4604168 (melanoma cell lines).

SMILES strings stand for the structures. Some of the results follow. Many values rest on one well or one pass, so single values are uncertain.
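Further: cells treated in 1,536-well plates, then fixed and DAPI-stained, with nuclei counted from automated high-throughput microscope images.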

The test system of the assay is RPMI7951. Briefly: cell count relative to DMSO control; melanoma cells; higher = more viable cells. Conditions: library dose: standard library concentration; 72 h.
Turning to `CC[C@]1(O)C[C@H]2CN(CCc3c([nH]c4ccccc34)[C@@](C(=O)OC)(c3cc4c(cc3OC)N(C=O)[C@H]3[C@@](O)(C(=O)OC)[C@H](OC(C)=O)[C@]5(CC)C=CCN6CC[C@]43[C@@H]65)C2)C1` [vincristine] + O=C(Nc1cc(C(F)(F)F)cc(C(F)(F)F)c1)c1cc(Cl)ccc1O [IMD0354] (first compound 0.0005 µM, partner dose 0.08 µM), the cell count is 58%. `N#CC[C@H](C1CCCC1)n1cc(-c2ncnc3[nH]ccc23)cn1` [ruxolitinib] + Nc1cccc2c1CN(C1CCC(=O)NC1=O)C2=O [lenalidomide] (first compound 5 µM, partner dose 5 µM) yielded a cell count of 80.1%. In the case of `CC[C@]1(O)C[C@H]2CN(CCc3c([nH]c4ccccc34)[C@@](C(=O)OC)(c3cc4c(cc3OC)N(C=O)[C@H]3[C@@](O)(C(=O)OC)[C@H](OC(C)=O)[C@]5(CC)C=CCN6CC[C@]43[C@@H]65)C2)C1` [vincristine] + COCC[n+]1c2c(n(Cc3cnccn3)c1C)C(=O)c1ccccc1C2=O [YM155] (first compound 0.0005 µM, partner dose 0.002 µM) it was 27.8%; in that of `Cc1cc(Nc2cc(N3CCN(C)CC3)nc(Sc3ccc(NC(=O)C4CC4)cc3)n2)n[nH]1` [Tozasertib] + O=C(CCCCCCC(=O)Nc1ccccc1)NO [vorinostat] (first compound 0.03 µM, partner dose 0.4 µM), 56%; in that of `N#CC[C@H](C1CCCC1)n1cc(-c2ncnc3[nH]ccc23)cn1` [ruxolitinib] + CN(c1ncccc1CNc1nc(Nc2ccc3c(c2)CC(=O)N3)ncc1C(F)(F)F)S(C)(=O)=O [PF562271] (first compound 5 µM, partner dose 0.4 µM), 63.5%. In the case of `N#CC[C@H](C1CCCC1)n1cc(-c2ncnc3[nH]ccc23)cn1` [ruxolitinib] + CC(=O)O[C@@]12CO[C@@H]1C[C@H](O)[C@@]1(C)C(=O)[C@H](O)C3=C(C)[C@@H](OC(=O)[C@H](O)[C@@H](NC(=O)OC(C)(C)C)c4ccccc4)C[C@@](O)([C@@H](OC(=O)c4ccccc4)[C@H]21)C3(C)C [Docetaxel] (first compound 5 µM, partner dose 0.0005 µM) it was 28.7%. Compound `N#CC[C@H](C1CCCC1)n1cc(-c2ncnc3[nH]ccc23)cn1` [ruxolitinib] + C=C(c1ccc(C(=O)O)cc1)c1cc2c(cc1C)C(C)(C)CCC2(C)C [Bexarotene] (first compound 5 µM, partner dose 10 µM) returned a cell count of 60.5%. In the case of `CC[C@]1(O)C[C@H]2CN(CCc3c([nH]c4ccccc34)[C@@](C(=O)OC)(c3cc4c(cc3OC)N(C=O)[C@H]3[C@@](O)(C(=O)OC)[C@H](OC(C)=O)[C@]5(CC)C=CCN6CC[C@]43[C@@H]65)C2)C1` [vincristine] + O=S(=O)(c1ccccc1)N(CC(F)(F)F)c1ccc(C(O)(C(F)(F)F)C(F)(F)F)cc1 [T0901317] (first compound 0.0005 µM, partner dose 7 µM) it was 37.8%; in that of `Cc1cc(Nc2cc(N3CCN(C)CC3)nc(Sc3ccc(NC(=O)C4CC4)cc3)n2)n[nH]1` [Tozasertib] + COc1ccc(C2=N[C@@H](c3ccc(Cl)cc3)[C@@H](c3ccc(Cl)cc3)N2C(=O)N2CCNC(=O)C2)c(OC(C)C)c1 [Nutlin-3] (first compound 0.03 µM, partner dose 0.5 µM), 114%; in that of `CC[C@]1(O)C[C@H]2CN(CCc3c([nH]c4ccccc34)[C@@](C(=O)OC)(c3cc4c(cc3OC)N(C=O)[C@H]3[C@@](O)(C(=O)OC)[C@H](OC(C)=O)[C@]5(CC)C=CCN6CC[C@]43[C@@H]65)C2)C1` [vincristine] + CS(=O)(=O)c1ccc(C(=O)Nc2ccc(Cl)c(-c3ccccn3)c2)c(Cl)c1 [vismodegib] (first compound 0.0005 µM, partner dose 5 µM), 51.7%. In the case of `CC[C@]1(O)C[C@H]2CN(CCc3c([nH]c4ccccc34)[C@@](C(=O)OC)(c3cc4c(cc3OC)N(C=O)[C@H]3[C@@](O)(C(=O)OC)[C@H](OC(C)=O)[C@]5(CC)C=CCN6CC[C@]43[C@@H]65)C2)C1` [vincristine] + C#Cc1cccc(Nc2ncnc3cc(OCCOC)c(OCCOC)cc23)c1 [erlotinib] (first compound 0.0005 µM, partner dose 4 µM) it was 22.5%.
